Test results as given in patent US20170233449A1 (Teva, published 2017).

Target: PD-1 on activated human CD4 T cells (human, UniProt Q15116 25-288)
Assay: cell-based or functional assay

Sequence of UniProt Q15116 (Q15116 25-288 limits assumed): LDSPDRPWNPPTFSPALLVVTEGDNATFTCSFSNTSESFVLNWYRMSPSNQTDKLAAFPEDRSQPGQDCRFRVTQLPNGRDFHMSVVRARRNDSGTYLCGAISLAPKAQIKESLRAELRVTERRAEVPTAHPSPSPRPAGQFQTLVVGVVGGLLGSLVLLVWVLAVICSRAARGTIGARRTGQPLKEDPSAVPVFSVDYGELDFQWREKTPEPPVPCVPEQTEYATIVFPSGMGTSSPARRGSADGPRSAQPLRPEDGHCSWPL

EC50 On Target (pM) Th1 Diversion: 31.8 pM
B1: J110-HC-L6-IL4 IgG1 (other)
heavy: DVQLQESGPGLVKPSQSLSLTCTVTGHSITSDYAWNWIRQFPGDKLEWMGYISYSGYTTYNPSLKSRVSITRDTSKNQFFLQLNSVTTEDTATYFCARDLDYGPWFAYWGQGTLVTVSA[in this place human IgG1 constant region]SGGGGSHKCDITLQEIIKTLNSLTEQKTLCTELTVTDIFAASKNTTEKETFCRAATVLRQFYSHHEKDTRCLGATAQQFHRHKQLIRFLKRLDRNLWGLAGLNSCPVKEANQSTLENFLERLKTIMREKYSKCSS
light: DIQMTQSPASLSASVGETVTLTCRASENIHNYLAWYQQKQGKSPQLLVYNVKTLADGVPSRFSGSGSGTQYSLKINSLQPEDFGSYYCQHFWSSPWTFGGGTKVEIKRTVAAPSVFIFPPSDEQLKSGTASVVCLLNNFYPREAKVQWKVDNALQSGNSQESVTEQDSKDSTYSLSSTLTLSKADYEKHKVYACEVTHQGLSSPVTKSFNRGEC

EC50 On Target (pM) Th1 Diversion: 46.1 pM
B2: J110-HC-L6-IL-4 (R88Q) IgG1 (other)
heavy: DVQLQESGPGLVKPSQSLSLTCTVTGHSITSDYAWNWIRQFPGDKLEWMGYISYSGYTTYNPSLKSRVSITRDTSKNQFFLQLNSVTTEDTATYFCARDLDYGPWFAYWGQGTLVTVSA[in this place human IgG1 constant region]SGGGGSHKCDITLQEIIKTLNSLTEQKTLCTELTVTDIFAASKNTTEKETFCRAATVLRQFYSHHEKDTRCLGATAQQFHRHKQLIRFLKRLDQNLWGLAGLNSCPVKEANQSTLENFLERLKTIMREKYSKCSS
light: B1 light

One block for each binder: values may come before it.
